Test results taken from the supplement of paper PMC7826260.
This is one part of the list. One pool of 16,384 single-stranded DNAs met each Rep nickase domain in vitro at 3 µM enzyme and 37 °C for 1 h; the strands have 90 letters, of which the middle is given. Uncut reads are compared with the no-enzyme pool on a log2 scale; the lower, the more was cut; hits are not called. Because reads are shares of a total, they shift together, so uncut sequences can rise above 0 when many others are cut.

Tests used:
Assay in all cases: uncleaved DNA left, log2 of reads against the no-enzyme library (log2 ratio); higher = less cleavage (more negative = more Rep cleavage of the k-mer); sequences stand for … in CTCGTCCG…ACCGGAGA
[1] = test system: T1, Rep nickase domain of Muscovy duck circovirus
T1 sequence (protein, residues 1-111, tag omitted): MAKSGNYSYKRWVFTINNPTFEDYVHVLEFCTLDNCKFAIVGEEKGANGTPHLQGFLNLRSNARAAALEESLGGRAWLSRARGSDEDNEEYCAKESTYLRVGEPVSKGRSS
Protocol: (§1)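 A pool of 90-nt single-stranded DNAs with seven random bases just before the constant AC of the nick site (name = the seven bases) was cut by 3 µM recombinant His6-SUMO-tagged Rep nickase domain (300 nM DNA, 50 mM HEPES pH 8.0, 50 mM NaCl, 1 mM MnCl2, 1 h, 37 °C, three replicates). Uncut DNA was amplified and sequenced.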

[2] = test system: T2, Rep nickase domain of banana bunchy top virus
T2 sequence (protein, residues 1-94, tag omitted): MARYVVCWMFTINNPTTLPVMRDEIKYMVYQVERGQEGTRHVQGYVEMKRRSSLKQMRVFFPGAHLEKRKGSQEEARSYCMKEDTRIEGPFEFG
Protocol: as §1

[3] = test system: T3, Rep nickase domain of cabbage leaf curl virus
T3 sequence (protein, residues 1-116, tag omitted): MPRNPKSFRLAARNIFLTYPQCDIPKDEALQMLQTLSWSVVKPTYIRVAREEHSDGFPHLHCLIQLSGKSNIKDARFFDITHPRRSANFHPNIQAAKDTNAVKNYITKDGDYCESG
Protocol: as §1

[4] = test system: T4, Rep nickase domain of chickpea chlorotic dwarf virus
T4 sequence (protein, residues 1-124, tag omitted): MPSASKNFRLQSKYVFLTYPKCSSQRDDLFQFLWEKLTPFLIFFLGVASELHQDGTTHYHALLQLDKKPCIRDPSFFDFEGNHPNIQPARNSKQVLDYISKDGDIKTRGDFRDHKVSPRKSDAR
Protocol: as §1

[5] = test system: T5, Rep nickase domain of faba bean necrotic yellows virus
T5 sequence (protein, residues 1-98, tag omitted): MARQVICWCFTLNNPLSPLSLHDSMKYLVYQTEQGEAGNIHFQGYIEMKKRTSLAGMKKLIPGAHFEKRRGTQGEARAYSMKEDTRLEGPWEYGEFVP
Protocol: as §1

[6] = test system: T6, Rep nickase domain of maize striate mosaic virus
T6 sequence (protein, residues 1-117, tag omitted): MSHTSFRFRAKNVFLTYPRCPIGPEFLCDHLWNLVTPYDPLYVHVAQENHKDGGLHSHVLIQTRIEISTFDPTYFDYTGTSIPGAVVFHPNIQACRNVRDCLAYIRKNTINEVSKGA
Protocol: as §1

[7] = test system: T7, Rep nickase domain of porcine circovirus 2
T7 sequence (protein, residues 2-116, tag omitted): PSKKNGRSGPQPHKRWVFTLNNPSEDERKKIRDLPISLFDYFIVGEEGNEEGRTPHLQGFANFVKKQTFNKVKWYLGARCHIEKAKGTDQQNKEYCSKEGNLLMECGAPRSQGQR
Protocol: as §1

[8] = test system: T8, Rep nickase domain of tomato yellow leaf curl virus
T8 sequence (protein, residues 1-136, tag omitted): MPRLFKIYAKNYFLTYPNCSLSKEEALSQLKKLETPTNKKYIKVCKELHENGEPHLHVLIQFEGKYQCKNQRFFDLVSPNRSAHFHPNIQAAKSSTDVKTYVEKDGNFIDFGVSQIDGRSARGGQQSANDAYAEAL
Protocol: as §1

[9] = test system: T9, Rep nickase domain of wheat dwarf virus
T9 sequence (protein, residues 1-137, tag omitted): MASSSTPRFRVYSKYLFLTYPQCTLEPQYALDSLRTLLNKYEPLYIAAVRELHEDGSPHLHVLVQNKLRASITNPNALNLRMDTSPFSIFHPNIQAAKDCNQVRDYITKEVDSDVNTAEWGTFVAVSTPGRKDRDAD
Protocol: as §1

| Sequence | uncleaved DNA left (log2) [1] | uncleaved DNA left (log2) [2] | uncleaved DNA left (log2) [3] | uncleaved DNA left (log2) [4] | uncleaved DNA left (log2) [5] | uncleaved DNA left (log2) [6] | uncleaved DNA left (log2) [7] | uncleaved DNA left (log2) [8] | uncleaved DNA left (log2) [9] |
| --- | --- | --- | --- | --- | --- | --- | --- | --- | --- |
| GGGCAGT | 0.0238 | 0.121 | 0.772 | 1.89 | -0.0626 | 2.24 | 0.132 | 0.0235 | 0.113 |
| CTCCGTT | 0.203 | -0.00502 | 0.0848 | -0.567 | 0.096 | 0.292 | -0.0769 | -0.0134 | 0.0856 |
| AGATAAA | 0.0434 | 0.014 | 0.0652 | 0.373 | 0.19 | -0.168 | 0.0567 | -0.0614 | 0.0785 |
| CGAAAGA | -0.012 | 0.0158 | -0.0262 | 0.0986 | -0.0279 | -0.58 | -0.0489 | -0.0261 | -0.0648 |
| CGCATTG | 0.141 | 0.00636 | -0.207 | 0.186 | -0.0385 | -0.0416 | 0.0411 | 0.124 | -0.0182 |
| GGCACGC | 0.0143 | 0.0657 | 0.603 | 1.32 | 0.0675 | 1.72 | 0.145 | 0.0576 | 0.176 |
| TGGGACG | -0.0829 | 0.0629 | 0.719 | 1.67 | -0.144 | 1.82 | 0.144 | -0.0227 | 0.11 |
| TCCGCTT | 0.0703 | 0.0599 | 0.104 | -1.04 | 0.102 | -0.0467 | -0.134 | 0.0553 | -0.0984 |
| GGTCTAG | 0.0317 | -0.00949 | 0.16 | 0.166 | 0.0474 | -0.187 | 0.0851 | 0.0631 | 0.121 |
| ATTTGTA | -0.531 | -0.32 | -0.468 | -1.52 | -0.00996 | -1.23 | -0.901 | -0.0249 | -0.152 |
| TTCCTCA | -0.0171 | 0.155 | 0.0801 | -0.762 | 0.0642 | -0.106 | -0.031 | 0.128 | 0.172 |
| TACACAT | 0.0835 | -0.0182 | -0.517 | -2.32 | -0.0506 | -0.312 | -0.37 | -0.0272 | 0.0667 |
| CTTGCTT | -0.179 | -0.222 | -0.651 | -1.82 | -0.13 | -1.2 | -0.911 | -0.124 | -0.245 |
| CTTTGTA | -0.299 | -0.127 | -0.486 | -1.59 | -0.102 | -1.06 | -0.581 | -0.109 | -0.243 |
| GTCTGCG | -0.0974 | -0.0693 | -0.647 | -0.296 | -0.0415 | -0.705 | 0.0648 | -0.185 | -0.153 |
| AAATCCT | -3.78 | -0.186 | -3.84 | -3.47 | -0.0153 | -2.91 | -3.97 | -0.233 | -3.7 |
| ATATTGC | 0.0812 | 0.0582 | -0.373 | 0.817 | 0.16 | -0.134 | 0.244 | 0.166 | -0.023 |
| AAACAGG | 0.0941 | 0.113 | -0.00216 | 0.631 | 0.0579 | -0.234 | 0.172 | 0.00264 | 0.178 |
| TCCTCGC | -0.0582 | 0.0171 | -0.357 | -0.634 | -0.0467 | -1.04 | 0.0375 | -0.0398 | -0.211 |
| TAACCAA | 0.0325 | 0.184 | -0.474 | -2.27 | 0.0743 | -0.411 | -0.64 | 0.114 | 0.0149 |

| Sequence | uncleaved DNA left (log2) [1] | uncleaved DNA left (log2) [2] | uncleaved DNA left (log2) [3] | uncleaved DNA left (log2) [4] | uncleaved DNA left (log2) [5] | uncleaved DNA left (log2) [6] | uncleaved DNA left (log2) [7] | uncleaved DNA left (log2) [8] | uncleaved DNA left (log2) [9] |
| --- | --- | --- | --- | --- | --- | --- | --- | --- | --- |
| CCGGAAT | 0.109 | 0.0789 | 0.368 | 0.93 | -0.1 | 1.32 | 0.138 | 0.055 | -0.043 |
| CATATGA | -0.0118 | -0.0121 | -0.139 | -0.0933 | -0.0333 | -0.924 | 0.0665 | 0.0448 | -0.0517 |
| CATTACA | -1.06 | -1.39 | -0.519 | -2.98 | -0.0992 | -1.05 | -1.36 | 0.0272 | -0.0945 |
| CTCCCTC | -0.0155 | -0.123 | 0.0658 | -0.2 | -0.153 | -0.355 | -0.113 | -0.0386 | -0.00355 |
| TTATTAA | 0.187 | 0.215 | 0.26 | 0.00996 | 0.166 | 0.228 | 0.113 | 0.144 | 0.127 |
| AATCTTC | 0.0981 | 0.0235 | -0.0471 | -0.444 | 0.097 | -0.358 | -0.186 | 0.0281 | 0.143 |
| GCTTAGC | 0.0384 | 0.0829 | -0.155 | -0.00332 | -0.0764 | -0.87 | 0.161 | 0.0326 | 0.0296 |
| TTCACAT | 0.027 | 0.0538 | 0.403 | -0.142 | 0.00375 | 0.537 | 0.0857 | 0.112 | 0.112 |
| AGTAGCA | 0.0989 | 0.0291 | -0.148 | -0.39 | 0.109 | -0.782 | -0.51 | 0.158 | 0.043 |
| ACTGGCT | 0.0858 | 0.147 | -0.17 | -0.0336 | 0.1 | -0.197 | 0.165 | 0.16 | 0.0702 |
| GCCTTCA | -0.0168 | 0.148 | 0.251 | -0.0395 | 0.0017 | 0.415 | -0.0532 | 0.00166 | 0.0264 |
| GTCCTAT | 0.0245 | 0.203 | 0.339 | 0.856 | 0.0716 | 1.75 | -0.031 | 0.116 | 0.158 |
| ACAAGCT | 0.0363 | 0.122 | -0.123 | 0.141 | 0.131 | -0.116 | 0.262 | -0.0195 | 0.0647 |
| CGTCTTT | -0.126 | -0.0786 | -0.106 | -1.45 | -0.102 | -0.235 | -0.533 | 0.04 | -0.0586 |
| TGTTAAA | 0.103 | 0.119 | 0.256 | 0.372 | 0.0729 | 0.422 | 0.0729 | 0.125 | 0.0881 |
| CGCTATC | 0.0211 | 0.0446 | 0.169 | 0.046 | -0.0243 | -0.406 | 0.0212 | 0.0236 | 0.0337 |
| ACATAAA | 0.0331 | 0.0139 | -0.159 | -0.145 | 0.0181 | -0.801 | 0.114 | -0.136 | -0.0256 |
| AGGCAGC | -0.00429 | -0.0213 | 0.156 | 0.549 | 0.0266 | 0.0647 | 0.224 | -0.0449 | -0.0128 |
| TATGAAC | 0.0306 | 0.0114 | 0.0635 | -0.0749 | 0.0355 | -0.231 | 0.0702 | 0.0727 | 0.0297 |
| GCGGGTG | 0.0564 | 0.0416 | 0.075 | 0.596 | -0.0611 | 1.41 | 0.125 | -0.0315 | 0.0181 |
